Source: the CheMixHub viscosity set
± gives the uncertainty stated by the source. A number of entries come with more than one value. They are shown here; other results are not. The source may hold further records. Values that stand side by side are repeats across runs, samples, wells, individuals or studies. What stands in brackets tells the records apart. Letters count within one entry.

For `CCC(=O)c1ccccc1`, which viscosity (308.15 K, 101 kPa) is on record?
The viscosity was 1.518 ± 0.047 mPa·s [study A] and 1.468 ± 0.013 mPa·s [study B] and 1.469 ± 0.061 mPa·s [study C] and 1.54 ± 0.035 mPa·s [study D] and 1.468 ± 0.02 mPa·s [study E] and 1.468 ± 0.019 mPa·s [study F].

With `OCCO` as the molecule, how does the viscosity (293.15 K, 100 kPa) read?
Its viscosity is 21.44 ± 2.1 mPa·s [study A] and 21.3 ± 4.3 mPa·s [study B] and 20.9 ± 4.2 mPa·s [study C] and 21.3 ± 4.3 mPa·s [study D] and 20.3 ± 3 mPa·s [study E] and 20.86 ± 0.16 mPa·s [study F] and 21.02 ± 0.063 mPa·s [study G].

What about the viscosity (293.15 K, 101 kPa) of the same molecule?
The viscosity was 19.79 ± 0.26 mPa·s [study A] and 21.35 ± 0.45 mPa·s [study B] and 21.4 ± 0.6 mPa·s [study C] and 21.44 ± 2 mPa·s [study D] and 20.71 ± 0.2 mPa·s [study E].

And the viscosity (298.15 K, 101 kPa)?
The viscosity was 17.7 ± 0.7 mPa·s [study A] and 17.67 ± 0.48 mPa·s [study B] and 16.55 ± 0.35 mPa·s [study C] and 18.64 ± 0.38 mPa·s [study D].

And the viscosity (303.15 K, 100 kPa)?
Its viscosity is 14.33 ± 1.4 mPa·s [study A] and 14.33 ± 2.9 mPa·s [study B] and 13.49 ± 0.61 mPa·s [study C] and 13.54 ± 0.081 mPa·s [study D] and 13.49 ± 0.55 mPa·s [study E] and 13.53 ± 0.12 mPa·s [study F].

What about the viscosity (303.15 K, 101 kPa) of the same molecule?
The viscosity was 13.27 ± 0.19 mPa·s [study A] and 13.53 ± 0.091 mPa·s [study B] and 13.53 ± 0.091 mPa·s [study C] and 14.33 ± 1.3 mPa·s [study D] and 13.53 ± 0.092 mPa·s [study E].

And the viscosity (313.15 K, 100 kPa)?
The viscosity was 10.01 ± 1 mPa·s [study A] and 9.34 ± 0.61 mPa·s [study B] and 9.52 ± 0.2 mPa·s [study C] and 9.34 ± 0.38 mPa·s [study D] and 9.577 ± 3 mPa·s [study E] and 9.59 ± 0.072 mPa·s [study F].

And the viscosity (313.15 K, 101 kPa)?
Its viscosity is 9.65 ± 0.39 mPa·s [study A] and 9.13 ± 0.13 mPa·s [study B] and 9.407 ± 0.31 mPa·s [study C] and 9.684 ± 0.25 mPa·s [study D] and 9.684 ± 0.063 mPa·s [study E] and 9.446 ± 0.053 mPa·s [study F] and 10.01 ± 0.93 mPa·s [study G] and 8.76 ± 0.1 mPa·s [study H].

What about the viscosity (318.15 K, 101 kPa) of the same molecule?
Its viscosity is 8.11 ± 0.33 mPa·s [study A] and 8.34 ± 0.23 mPa·s [study B] and 8.04 ± 0.18 mPa·s [study C] and 8.203 ± 0.21 mPa·s [study D] and 8.203 ± 0.054 mPa·s [study E] and 7.453 ± 0.17 mPa·s [study F].

And the viscosity (323.15 K, 100 kPa)?
Its viscosity is 7.121 ± 0.71 mPa·s [study A] and 6.75 ± 0.6 mPa·s [study B] and 6.75 ± 0.27 mPa·s [study C] and 6.933 ± 0.052 mPa·s [study D] and 6.97 ± 0.021 mPa·s [study E] and 6.588 ± 0.11 mPa·s [study F].

What about the viscosity (323.15 K, 101 kPa) of the same molecule?
The viscosity was 6.78 ± 0.28 mPa·s [study A] and 6.666 ± 0.093 mPa·s [study B] and 6.918 ± 0.69 mPa·s [study C] and 7.02 ± 0.15 mPa·s [study D] and 7.032 ± 0.18 mPa·s [study E] and 7.032 ± 0.047 mPa·s [study F] and 7.121 ± 0.66 mPa·s [study G] and 6.51 ± 0.07 mPa·s [study H].
